The record followed here is PMC9911399, “Two distinct binding modes provide the RNA-binding protein RbFox with extraordinary sequence specificity”.

Sequences and labels used below:
T1: RBFOX1 RRM (Homo sapiens, UniProt Q9NWB1 109-208)
T1 sequence: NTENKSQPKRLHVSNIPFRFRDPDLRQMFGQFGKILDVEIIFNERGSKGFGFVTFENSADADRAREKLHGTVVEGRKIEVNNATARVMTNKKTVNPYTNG

B1: AUCACAC (DNA:RNA)
RNA: GGGAGACCGGAAUUCAGAUUGUCCAUCACACUUAAAUCCCGUCGUAGCCACCA
DNA 1: CAATCTGAATTCCGGTCTCCC
DNA 2: TGGTGGCTACGACGGGATT
B2: UGUGACC (DNA:RNA)
RNA: B1 RNA with A25U, U26G, C27U, A28G, C29A, A30C
DNA 1: CAATCTGAATTCCGGTCTCCC
DNA 2: TGGTGGCTACGACGGGATT
B3: CUUCACU (DNA:RNA)
RNA: B1 RNA with A25C, C27U, A28C, C29A, A30C, C31U
DNA 1: CAATCTGAATTCCGGTCTCCC
DNA 2: TGGTGGCTACGACGGGATT
B4: CCGAAAG (DNA:RNA)
RNA: B1 RNA with A25C, U26C, C27G, C29A, C31G
DNA 1: CAATCTGAATTCCGGTCTCCC
DNA 2: TGGTGGCTACGACGGGATT
B5: AUAGUGA (DNA:RNA)
RNA: B1 RNA with C27A, A28G, C29U, A30G, C31A
DNA 1: CAATCTGAATTCCGGTCTCCC
DNA 2: TGGTGGCTACGACGGGATT
B6: GUGAUAU (DNA:RNA)
RNA: B1 RNA with A25G, C27G, C29U, C31U
DNA 1: CAATCTGAATTCCGGTCTCCC
DNA 2: TGGTGGCTACGACGGGATT
B7: UCUGUCA (DNA:RNA)
RNA: GGGAGACCGGAAUUCAGAUUGUCCUCUGUCAUUAAAUCCCGUCGUAGCCACCA
DNA 1: CAATCTGAATTCCGGTCTCCC
DNA 2: TGGTGGCTACGACGGGATT
B8: AAAAUAU (DNA:RNA)
RNA: B1 RNA with U26A, C27A, C29U, C31U
DNA 1: CAATCTGAATTCCGGTCTCCC
DNA 2: TGGTGGCTACGACGGGATT
B9: GUCGGAA (DNA:RNA)
RNA: B1 RNA with A25G, A28G, C29G, C31A
DNA 1: CAATCTGAATTCCGGTCTCCC
DNA 2: TGGTGGCTACGACGGGATT
B10: UUGGGGC (DNA:RNA)
RNA: B1 RNA with A25U, C27G, A28G, C29G, A30G
DNA 1: CAATCTGAATTCCGGTCTCCC
DNA 2: TGGTGGCTACGACGGGATT
B11: AGUAUCC (DNA:RNA)
RNA: B1 RNA with U26G, C27U, C29U, A30C
DNA 1: CAATCTGAATTCCGGTCTCCC
DNA 2: TGGTGGCTACGACGGGATT
B12: AACCCUC (DNA:RNA)
RNA: B1 RNA with U26A, A28C, A30U
DNA 1: CAATCTGAATTCCGGTCTCCC
DNA 2: TGGTGGCTACGACGGGATT
B13: AGGGCUA (DNA:RNA)
RNA: B1 RNA with U26G, C27G, A28G, A30U, C31A
DNA 1: CAATCTGAATTCCGGTCTCCC
DNA 2: TGGTGGCTACGACGGGATT
B14: CAACAAA (DNA:RNA)
RNA: B1 RNA with A25C, U26A, C27A, A28C, C29A, C31A
DNA 1: CAATCTGAATTCCGGTCTCCC
DNA 2: TGGTGGCTACGACGGGATT
B15: UCAGCAU (DNA:RNA)
RNA: B7 RNA with U27A, U29C, C30A, A31U
DNA 1: CAATCTGAATTCCGGTCTCCC
DNA 2: TGGTGGCTACGACGGGATT
B16: UUACAGA (DNA:RNA)
RNA: B7 RNA with C26U, U27A, G28C, U29A, C30G
DNA 1: CAATCTGAATTCCGGTCTCCC
DNA 2: TGGTGGCTACGACGGGATT
B17: UAAGCGC (DNA:RNA)
RNA: B1 RNA with A25U, U26A, C27A, A28G, A30G
DNA 1: CAATCTGAATTCCGGTCTCCC
DNA 2: TGGTGGCTACGACGGGATT
B18: GUUCGGA (DNA:RNA)
RNA: B7 RNA with U25G, C26U, G28C, U29G, C30G
DNA 1: CAATCTGAATTCCGGTCTCCC
DNA 2: TGGTGGCTACGACGGGATT
B19: CAAAGGC (DNA:RNA)
RNA: B1 RNA with A25C, U26A, C27A, C29G, A30G
DNA 1: CAATCTGAATTCCGGTCTCCC
DNA 2: TGGTGGCTACGACGGGATT
B20: CAAAAGU (DNA:RNA)
RNA: B1 RNA with A25C, U26A, C27A, C29A, A30G, C31U
DNA 1: CAATCTGAATTCCGGTCTCCC
DNA 2: TGGTGGCTACGACGGGATT

Numbering of substitutions follows the chain as printed; changes in the protein carry UniProt numbers. The list shows a part of the results.

This assay addresses T1, RBFOX1 RRM. The experiment in a line: EMSA; HiTS-Eq, 1 nM pool, 10 min; buffer printed only for the single-RNA assays: 10 mM Tris pH 7.5, 150 mM NaCl, 3.4 mM EDTA, 0.001% NP-40, 30 C. The note with it: tags: His6 N-terminal (pET28a); label: 5' 32P. The method in brief: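 Purified RbFox RRM, wild type or mutant, was incubated for 10 min in 50 µL with 1 nM of a 5′-radiolabelled RNA pool carrying 7 randomized nucleotides, whose flanks were annealed to DNA oligonucleotides, over a series of increasing protein concentrations. Unbound RNA was resolved on 8% native PAGE, cut out, reverse-transcribed, barcoded by PCR and sequenced on an Illumina HiSeq 2500. Relative association constants were derived from changes in read counts for each RNA species versus the control reaction and normalised to the cognate motif.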
Take B1: the binding signal is 0.00092 KA relative to UGCAUGU.

Take B2: the binding signal is 0.0155 KA relative to UGCAUGU.

As to B3, the binding signal is 0.00478 KA relative to UGCAUGU.

For the molecule B4, the binding signal was 0.00968 KA relative to UGCAUGU.

On to B5, for which the binding signal is 0.00737 KA relative to UGCAUGU.

As for B6, the binding signal is 0.00897 KA relative to UGCAUGU.

On to B7, for which the binding signal was 0.0106 KA relative to UGCAUGU.

Take B8: the binding signal is 0.00193 KA relative to UGCAUGU.

B9: the binding signal is 0.0105 KA relative to UGCAUGU.

As to B10, the binding signal is 0.0074 KA relative to UGCAUGU.

With B11, the binding signal was 0.0066 KA relative to UGCAUGU.

With B12, the binding signal is 0.000348 KA relative to UGCAUGU.

Consider B13, for which the binding signal was 0.0182 KA relative to UGCAUGU.

Turning to B14, the binding signal is 0.0026 KA relative to UGCAUGU.

As for B15, the binding signal is 0.0104 KA relative to UGCAUGU.

Turning to B16, the binding signal was 0.00703 KA relative to UGCAUGU.

Regarding B17, the binding signal was 0.0104 KA relative to UGCAUGU.

With B18, the binding signal is 0.00644 KA relative to UGCAUGU.

As for B19, the binding signal was 0.00351 KA relative to UGCAUGU.

On to B20, for which the binding signal was 0.000757 KA relative to UGCAUGU.
